Test results published in patent US8669255B2, “Substituted octahydropyrrolo[1,2-a]pyrazines as calcium channel blockers” (AbbVie Inc., priority 2011, dated 2014).

What follows are molecules tested against human Cav2.2 (Homo sapiens, UniProt Q00975) (assay: In vitro assessment of calcium channel activity using FLIPR (Ca2+ influx in IMR32 cells)). Details: IMR32 cells endogenously expressing human Cav2.2; 60 minute pre-incubation; 2 μM nifedipine; depolarized with 80 mM KCl; average of at least two runs unless marked (*).
Format: cell-based

Compared with `O=C(c1cccc(C(F)(F)F)c1F)N1CCN2C[C@H](Oc3cnc(C4CC4)cn3)C[C@H]2C1` [Example 80, [(7R,8aS)-7-[(5-cyclopropylpyrazin-2-yl)oxy]hexahydropyrrolo[1,2-a]-pyrazin-2(1H)-yl][2-fluoro-3-(trifluoromethyl)phenyl]methanone], `O=C(c1cccc(C(F)(F)F)n1)N1CCN2C[C@H](Oc3cnc(C4CC4)cn3)C[C@H]2C1` [Example 107, [(7R,8aS)-7-[(5-cyclopropylpyrazin-2-yl)oxy]hexahydropyrrolo[1,2-a]-pyrazin-2(1H)-yl][6-(trifluoromethyl)pyridin-2-yl]methanone] is 8.9-fold higher in IC50: 1540 nM for the first, 13700 nM for the second. The first is the more potent here.

First: O=C(c1cccc(OC(F)(F)F)c1)N1CCN2C[C@H](Oc3cnc(C4CC4)cn3)C[C@H]2C1 [Example 81, [(7R,8aS)-7-[(5-cyclopropylpyrazin-2-yl)oxy]hexahydropyrrolo[1,2-a]-pyrazin-2(1H)-yl][3-(trifluoromethoxy)phenyl]methanone]
Second: O=C(Oc1cccc(OC(F)(F)F)c1)N1CCN2C[C@H](Oc3cnc(C4CC4)cn3)C[C@H]2C1 [Example 114, 3-(trifluoromethoxy)phenyl (7R,8aS)-7-[(5-cyclopropylpyrazin-2-yl)oxy]-hexahydropyrrolo[1,2-a]pyrazine-2(1H)-carboxylate]
The IC50 of the first is 1.6-fold lower: 1350 nM for the first, 2120 nM for the second. The first is the more potent here.

`O=C(c1ccc(F)c(Cl)c1)N1CCN2C[C@H](Oc3cnc(C4CC4)cn3)C[C@H]2C1` [Example 82, (3-chloro-4-fluorophenyl)[(7R,8aS)-7-[(5-cyclopropylpyrazin-2-yl)oxy]-hexahydropyrrolo[1,2-a]pyrazin-2(1H)-yl]methanone] and `O=C(c1ccc(F)c(Cl)c1F)N1CCN2C[C@H](Oc3cnc(C4CC4)cn3)C[C@H]2C1` [Example 84, (3-chloro-2,4-difluorophenyl)[(7R,8aS)-7-[(5-cyclopropylpyrazin-2-yl)-oxy]hexahydropyrrolo[1,2-a]pyrazin-2(1H)-yl]methanone] are within 1.5-fold of each other in IC50: 7050 nM for the first, 5080 nM for the second.

Compared with `O=C(c1cc(F)cc(F)c1)N1CCN2C[C@H](Oc3cnc(C4CC4)cn3)C[C@H]2C1` [Example 83, [(7R,8aS)-7-[(5-cyclopropylpyrazin-2-yl)oxy]hexahydropyrrolo[1,2-a]-pyrazin-2(1H)-yl](3,5-difluorophenyl)methanone], `CC(C)c1cccc(C(=O)N2CCN3C[C@H](Oc4cnc(C5CC5)cn4)C[C@H]3C2)c1` [Example 122, [(7R,8aS)-7-[(5-cyclopropylpyrazin-2-yl)oxy]hexahydropyrrolo[1,2-a]-pyrazin-2(1H)-yl](3-isopropylphenyl)methanone] is 6.5-fold lower in IC50: 6280 nM for the first, 970 nM for the second. The second is the more potent here.

`FC(F)(F)c1cccc(N2CCN3C[C@H](Oc4ccc(Cl)cn4)C[C@H]3C2)n1` [Example 85, (7R,8aS)-7-[(5-chloropyridin-2-yl)oxy]-2-[6-(trifluoromethyl)pyridin-2-yl]-octahydropyrrolo[1,2-a]pyrazine] and `FC(F)(F)c1cccc(N2CCN3C[C@@H](Oc4ccc(Cl)cn4)C[C@H]3C2)n1` [Example 93, (7S,8aS)-7-[(5-chloropyridin-2-yl)oxy]-2-[6-(trifluoromethyl)pyridin-2-yl]-octahydropyrrolo[1,2-a]pyrazine] are within 1.5-fold of each other in IC50: 4720 nM for the first, 4360 nM for the second.

Compared with `FC(F)(F)c1ccc(N2CCN3C[C@H](Oc4ccc(Cl)cn4)C[C@H]3C2)nc1` [Example 86, (7R,8aS)-7-[(5-chloropyridin-2-yl)oxy]-2-[5-(trifluoromethyl)pyridin-2-yl]-octahydropyrrolo[1,2-a]pyrazine], `FC(F)(F)c1cccc(O[C@@H]2C[C@H]3CN(c4ccc(Cl)cn4)CCN3C2)n1` [Example 88, (7R,8aS)-2-(5-chloropyridin-2-yl)-7-{[6-(trifluoromethyl)pyridin-2-yl]-oxy}octahydropyrrolo[1,2-a]pyrazine] is lower in IC50: > 30000 nM for the first, 4230 nM for the second.

First: FC(F)(F)c1cccc(O[C@@H]2C[C@H]3CN(c4cccc(C(F)(F)F)n4)CCN3C2)n1 [Example 87, (7R,8aS)-2-[6-(trifluoromethyl)pyridin-2-yl]-7-{[6-(trifluoromethyl)pyridin-2-yl]oxy}octahydropyrrolo[1,2-a]pyrazine]
Second: FC(F)(F)c1cccc(N2CCN3C[C@H](Oc4cnc(C5CC5)cn4)C[C@H]3C2)n1 [Example 89, (7R,8aS)-7-[(5-cyclopropylpyrazin-2-yl)oxy]-2-[6-(trifluoromethyl)pyridin-2-yl]octahydropyrrolo[1,2-a]pyrazine]
The IC50 of the first is 2.3-fold higher: 4640 nM for the first, 2010 nM for the second. The second is the more potent here.

Going from `FC(F)(F)c1ccc(N2CCN3C[C@H](Oc4cnc(C5CC5)cn4)C[C@H]3C2)nc1` [Example 90, (7R,8aS)-7-[(5-cyclopropylpyrazin-2-yl)oxy]-2-[5-(trifluoromethyl)pyridin-2-yl]octahydropyrrolo[1,2-a]pyrazine] to `O=C(c1ccc(C(F)(F)F)cn1)N1CCN2C[C@H](Oc3cnc(C4CC4)cn3)C[C@H]2C1` [Example 109, [(7R,8aS)-7-[(5-cyclopropylpyrazin-2-yl)oxy]hexahydropyrrolo[1,2-a]-pyrazin-2(1H)-yl][5-(trifluoromethyl)pyridin-2-yl]methanone], the IC50 rises from 1960 nM to 6480 nM (3.3-fold).

`FC(F)(F)c1cccc(CN2CCN3C[C@H](Oc4ccc(Cl)cn4)C[C@H]3C2)c1` [Example 91, (7R,8aS)-7-[(5-chloropyridin-2-yl)oxy]-2-[3-(trifluoromethyl)benzyl]-octahydropyrrolo[1,2-a]pyrazine] and `Clc1ccc(O[C@H]2C[C@@H]3CN(Cc4ccccc4)CCN3C2)nc1` [Example 92, (7S,8aR)-2-benzyl-7-[(5-chloropyridin-2-yl)oxy]octahydropyrrolo[1,2-a]-pyrazine] are within 1.5-fold of each other in IC50: 2130 nM for the first, 1870 nM for the second.

`O=C(NC(c1ccccc1)c1ccccc1)[C@H]1C[C@H]2CN(C(c3ccccc3)c3ccccc3)CCN2C1` [Example 105, (7S,8aS)-N,2-bis(diphenylmethyl)octahydropyrrolo[1,2-a]pyrazine-7-carboxamide] and `CC(C)c1cccc(OC(=O)N2CCN3C[C@H](Oc4cnc(C5CC5)cn4)C[C@H]3C2)c1` [Example 119, 3-isopropylphenyl (7R,8aS)-7-[(5-cyclopropylpyrazin-2-yl)oxy]hexahydro-pyrrolo[1,2-a]pyrazine-2(1H)-carboxylate] are within 1.5-fold of each other in IC50: 2700 nM for the first, 2110 nM for the second.

Compared with `O=C(c1cc(C(F)(F)F)ccn1)N1CCN2C[C@H](Oc3cnc(C4CC4)cn3)C[C@H]2C1` [Example 106, [(7R,8aS)-7-[(5-cyclopropylpyrazin-2-yl)oxy]hexahydropyrrolo[1,2-a]-pyrazin-2(1H)-yl][4-(trifluoromethyl)pyridin-2-yl]methanone], `CC(C)(C)c1ccnc(C(=O)N2CCN3C[C@H](Oc4cnc(C5CC5)cn4)C[C@H]3C2)c1` [Example 112, (4-tert-butylpyridin-2-yl)[(7R,8aS)-7-[(5-cyclopropylpyrazin-2-yl)oxy]-hexahydropyrrolo[1,2-a]pyrazin-2(1H)-yl]methanone] is 2.9-fold lower in IC50: 15600 nM for the first, 5410 nM for the second. The second is the more potent here.

`COc1cccc(C(=O)N2CCN3C[C@H](Oc4cnc(C5CC5)cn4)C[C@H]3C2)n1` [Example 108, [(7R,8aS)-7-[(5-cyclopropylpyrazin-2-yl)oxy]hexahydropyrrolo[1,2-a]-pyrazin-2(1H)-yl](6-methoxypyridin-2-yl)methanone] and `O=C(c1cccc(N2CCCC2)n1)N1CCN2C[C@H](Oc3cnc(C4CC4)cn3)C[C@H]2C1` [Example 110, [(7R,8aS)-7-[(5-cyclopropylpyrazin-2-yl)oxy]hexahydropyrrolo[1,2-a]-pyrazin-2(1H)-yl][6-(pyrrolidin-1-yl)pyridin-2-yl]methanone] are within 1.5-fold of each other in IC50: 8580 nM for the first, 7230 nM for the second.

Compared with `O=C(c1cccc(N2CCCC2)c1)N1CCN2C[C@H](Oc3cnc(C4CC4)cn3)C[C@H]2C1` [Example 111, [(7R,8aS)-7-[(5-cyclopropylpyrazin-2-yl)oxy]hexahydropyrrolo[1,2-a]-pyrazin-2(1H)-yl][3-(pyrrolidin-1-yl)phenyl]methanone], `O=C(c1cccc(C2CC2)c1)N1CCN2C[C@H](Oc3cnc(C4CC4)cn3)C[C@H]2C1` [Example 121, (3-cyclopropylphenyl) [(7R,8aS)-7-[(5-cyclopropylpyrazin-2-yl)oxy]-hexahydropyrrolo[1,2-a]pyrazin-2(1H)-yl]methanone] is 2.5-fold lower in IC50: 4300 nM for the first, 1690 nM for the second. The second is the more potent here.

`O=C(Oc1cccc(C(F)(F)F)c1)N1CCN2C[C@H](Oc3cnc(C4CC4)cn3)C[C@H]2C1` [Example 113, 3-(trifluoromethyl)phenyl (7R,8aS)-7-[(5-cyclopropylpyrazin-2-yl)oxy]-hexahydropyrrolo[1,2-a]pyrazine-2(1H)-carboxylate] and `O=C(Oc1ccc(C(F)(F)F)cc1)N1CCN2C[C@H](Oc3cnc(C4CC4)cn3)C[C@H]2C1` [Example 115, 4-(trifluoromethyl)phenyl (7R,8aS)-7-[(5-cyclopropylpyrazin-2-yl)oxy]-hexahydropyrrolo[1,2-a]pyrazine-2(1H)-carboxylate] are within 1.5-fold of each other in IC50: 1620 nM for the first, 2260 nM for the second.

Compared with `O=C(Oc1ccc(F)c(C(F)(F)F)c1)N1CCN2C[C@H](Oc3cnc(C4CC4)cn3)C[C@H]2C1` [Example 116, 4-fluoro-3-(trifluoromethyl)phenyl (7R,8aS)-7-[(5-cyclopropylpyrazin-2-yl)-oxy]hexahydropyrrolo[1,2-a]pyrazine-2(1H)-carboxylate], `O=C(Oc1ccc(Cl)c(C(F)(F)F)c1)N1CCN2C[C@H](Oc3cnc(C4CC4)cn3)C[C@H]2C1` [Example 117, 4-chloro-3-(trifluoromethyl)phenyl (7R,8aS)-7-[(5-cyclopropylpyrazin-2-yl)oxy]hexahydropyrrolo[1,2-a]pyrazine-2(1H)-carboxylate] is 1.9-fold higher in IC50: 920 nM for the first, 1720 nM for the second.

Compared with `O=C(Oc1cc(Cl)cc(C(F)(F)F)c1)N1CCN2C[C@H](Oc3cnc(C4CC4)cn3)C[C@H]2C1` [Example 118, 3-chloro-5-(trifluoromethyl)phenyl (7R,8aS)-7-[(5-cyclopropylpyrazin-2-yl)oxy]hexahydropyrrolo[1,2-a]pyrazine-2(1H)-carboxylate], `CC(C)(C)c1cccc(OC(=O)N2CCN3C[C@H](Oc4cnc(C5CC5)cn4)C[C@H]3C2)c1` [Example 120, 3-tert-butylphenyl (7R,8aS)-7-[(5-cyclopropylpyrazin-2-yl)oxy]hexahydro-pyrrolo[1,2-a]pyrazine-2(1H)-carboxylate] is 3-fold lower in IC50: 3290 nM for the first, 1100 nM for the second.
